This is an account of results in the RNAGym collection of RNA variant scans (doi:10.1101/gad.245936.114).

Variants at the floor of the assay are shown more often than the library holds them.

First the molecules themselves.
B1: tRNA (parent)
chain: CUCUCGGUAGCCAAGUUGGUUUAAGGCGCAAGACUUUAAUUUAUCACUACGAAAUCUUGAGAUCGGGCGUUCGACUCGCCCCCGGGAGAUUUUUUCCUCGAGCAA

This data set covers variants of B1. Put plainly: nonsense suppression (GFP-seq) (ratio to wild type); higher = more function; SUP4oc tRNA, yeast GFP reporter sort-seq. The method in brief:
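Sorted GFP/RFP bins of yeast were each Illumina-sequenced with a phred ≥30 cutoff; the cells held a genome-integrated ochre-suppressor tRNA variant from a library with ~3% random mutations, a galactose-driven GFP ochre reporter, and RFP. Culture was in raffinose/galactose medium containing 80 mg/L adenine. Nonsense suppression, termed GFPSEQ, is the median GFP/RFP of the bins weighted by each variant's estimated cell share per bin, relative to the unmutated parent tRNA, for variants reaching ≥100 reads and ≥30 cells.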
Consider CUCUCGGUAGCCAAGUUGGUUUAAGGCGCAAGACUUUAAUUUAUCACUACGAAAUCUUGAGACCGGGCGUUCGACUUGCCCCCGGGAGAUUUUUUCCUCGAGCAA, for which the nonsense suppression was not above 0.026. With CUCUCGGUAGUCAAGUUGGUUUAAGGCACAAGACUUUAAUUUAUCACUACGAAAACUAGAGAUCGGGCGAUCGACUCGCCCCCGGGAGAUUUUUUCCUCGAGCAA the figure was not above 0.026.

Turning to CCCUCGGUAUCCAAGUUGUUUGAAGGCGCAUGACUUUAAUUUAUCACUACGAAAUCUUGAGAUCGGCCGUUCGACUCGCCCCCGGGAGAUUUUUUCCUCGAGCAA, the nonsense suppression was not above 0.026. As for CUCUCGGUCGCCAAGUUGGUUUAAGUCCCAAGACUUUAAUUUAUCACUACGAAAUCUUGAGAUUGGGCGUUCGACUCGCCCCCGGGAGAUUUUUUCCUCGAGCAA, the figure is not above 0.026; as for CCCUCGGUAGCCAAGUUGGUUUAAGGCGCAAGACUUUAAUUUAUCACUACGAAAUCUUGAGAUCGAGCGUUCGACUCGCCCCCGGGAGAUUUUUUCCUCGAGCAA, not above 0.026. With CUCUCGGUAGCCAAGUUGGUUUAAGGCGCAAGACUUUAAUUUAUCACUACGAAAUCUUGACAUCGGGCGUUCGACUCGCCCCCGGGGUAUUUUUUCCUCGAGCAA the figure was not above 0.026.

As to CUCUCGGUAGCUAAGUUGGUUUAAGGCGCAAGCCUUUAAUUUAUCACUACGAAAUCUUGAGAUCGGGCGUUCGACUCGCGCCCGGGAGAUUUUUUCCUCGAGCAA, the nonsense suppression was not above 0.026. As to CUAUCGGUUGCCAAGUUGGUUUUAGGCGCAAGACUUUAAUUUAUCACUACGAAAUCUUGAGACCGGGCGUUCGACUCGCCCCCGGGAUAUUUUUUCCUCGAGCAA, the nonsense suppression was not above 0.026. As for CUCUCGGUCGCCAAGUUGGUUUAAGGCGCAAGACUUUAAUUUAUCACUACGAAGUCUUGAGAUCGGGCGUUCGACUCACCCCCGGGAUCUUUUUUCCUCGAGCAA, the figure is not above 0.026.

Consider CUCUCGGUAGCCAAGUUGGUAUAAGACGCAAGACUUUAAUUUAUCACUACGAAAUCUUGAGAUCGGGCGUUCGACUCGCCCCCGGGAGAUUUUUUCCUCGAGCAA, for which the nonsense suppression was not above 0.026. As for CUCUCGGUAGCCGAGUUGGUUUAAGGCGCAAGAUGUUAAUUUAUCACUACGAAAUCUUGAGAUCGGGCGUUCGACUCGCCGCCGGGAGAUUUUUUCCUCGAGCAA, the figure is not above 0.026; as for CGCUCGGUAUCCAAGUUGGUUUAAGCCGCAAGACUUUAAUUUAUCACUACGAAAUCUUGGGAUCGGGCGUUCGACUCGCCCCCGGGAGAUUUUUUCCUCGAGCAA, not above 0.026; as for CUCUCGGUAGCCAAGUUGGUUUAAGGCGUAAGACUUUAAUUUAUCACUACGAAAUCUUGAGAUCGGGCGUUCGACCCGCCCCCGGGAGAUUUUUUCCUCGAGCAA, 0.772. With CUCUCGGUAGCCAAGUUAGUCUAAGGCGCAAGACUUUAAUUUAUCACUACGAAAUCUUGAGAUCGGGCGUUCGACUCGCCCCCGGGAGCUUUUUUCCUCGAGCAA the figure was not above 0.026; with CUCUCGGUAGCCAAGUUGGUUAAAGGCGCACCACUUUAAUUUAUCACUACGAAAUGAUGAGAUCGGGCGUUCGACUCGCCCCCGGGAGAUUUUUUCCUCGAGCAA, not above 0.026. AUCUCGGUAGCCAAGUUGGUUUAAGGCGCAAGACUUUAAUUUAUCACUACGAAAUCUUGAGUUCGGGCGUUCGACUCGCCCCCGGGAGAUUUUUUCCUCGAGCAA: the nonsense suppression was not above 0.026. As for CUCUCGGUAGCCAAGUUGGUUUAAGGCGCAAGACUUUAAUUUAUCACUACGAAAUCUUGAGAUCGGGCGCUCGACUCGCCCACGGGAGAUUUUUUCCUCGAGCAA, the figure is not above 0.026.

As to CUCUCGGUAGCCAAGUUGGUUUAAGGCGUAAGACUUUAAUUUAUCACUACGAAAUCUAGAGAUCGGCAGUUCAACUCGCCCCCGGGAGAUUUUUUCCUCGAGCAA, the nonsense suppression was not above 0.026. With CUCUCGGUAGCCAAGUUGGUUUAAGGCGUCAGACUUUAAUUUAUCACUACGAAAUCUUGAGAUCGGGCGUUCGACUCGCCCCCGGGAGAUUUUUUCCUCGAGCAA the figure was 0.196; with CUCUCGGUAGCCAAGUUGGUUUAAGGCGCAAGACUUUAAUUUAUCACUACGAAACCUUGAGAUCGGGCGGUCGACUCGCUCCCGGGAGAUUUUUUCCUCGAGCAA, not above 0.026.

For CACUCGGUAGCCAAGUUGGUGUAAGGCGCAAGAGUUUAAUUUAUCACUACGAAAUCUUGAGAUCGGGCAUUCGACUCGCCCCCGGGAGAUUUUUUCCUCGAGCAA, the nonsense suppression was not above 0.026. With CUAUCGGUAGCCAUGUUGGUUUAAGGCGCAAGACUUUAAUUUAUCACUACGAAAUCGUGAGAUCGGGCGUCCGACUCGCCCCCGGGAGAUUUUUUCCUCGAGCAA the figure was not above 0.026.

As to CUCUCGGUUGCCAAGUUGGUUUAAGGCCCAAGGCUUUAAUUUAUCACUACGAAAUCUUGAGAUCGGGCGUUCGACUCGCCCCCGGGAGAUUUUUUCCUCGAGCAA, the nonsense suppression was not above 0.026. For the variant CUCUCGGUUGCUACGUUGGUUUAAGGCGCAAGCCUUUAAUUUAUCACUACGAAAUCUUGAGAUCGGGCGUUCGACUCGCCCCCGGGAGAUUUUUUCCUCGAGCAA, the nonsense suppression was not above 0.026.

Consider CCAUCGGUAGCCAAGUUGGUUUAAGGAGCAAGACUUUAAUUUAUCACUACGAAAUCUUGAGAUCGGGCGUACGACUCACCCCCGGGAGAUUUUUUCCUCGAGCAA, for which the nonsense suppression is not above 0.026.

For CUCUCGGUAGCCAAGUUGGUUUCAGGCGCAAGAAUUUAAUUUAUCACUACGAAAUCUUGAGAUCGGGCGUUCGACUCGCCCCCGGGAGAUUUUUUCCUCGAGCAA, the nonsense suppression is not above 0.026. With CUCGCGCUAGCCAAGUUGGUUUAAGGCGCAAGACUUUAAUUUAUCACUACGAAAUCUUGAGAUCGGGCGUUCGACUCGCCCCCGGGAAAUUUUUUCCUCGAGCAA the figure was not above 0.026; with CUCUCGGUAGCCAAGUUGGCUUAAGGCACAAGACUUUAAUUUAUCACUACGAAAUCUUGAGAUCGGGCGUUCGACUCGCCCCCGGGAGAUUUUUUCCUCGAGCAA, 0.192; with CUCUCGGUAGCUAAGUUGGGUUAAGGCGCAAGACUUUAAUUUAUCACUACGAAAUCUUGAGAUCGGGCGUUCGACUCGCCCCCCGGAGAUUUUUUCCUCGAGCAA, not above 0.026. As for CUCUCGCUAGCCAAGUUGGUUUAAGGCGCAAGACUUUAAUUUAUCACUACGAAAUCAUGAGAUCGGGCGUUCGAAUCGCCCCCGGGAGAUUUUUUCCUCGAGCAA, the figure is not above 0.026; as for CUCUCGGUAGCCAAGUUGGUUUAAGGCGUAAGACUUUAAUUUAUCACUACGAAAUUUUGAGAUCGGGCGUUCGACUCGCCCCCGGGAGAUUUUUUCCUCGAGCAA, not above 0.026; as for CUCUCGGUAGCCAAGAUGGUUUAAGGCGCAAGACUUUAAUUUAUCACUACGAAAUCUUGAGAUCGGGCGUUCGACUUGCCCUCGGGAGAUUUUUUCCUCGAGCAA, not above 0.026.

As to CUCUCGGUAGCCAAGUUGGUUUAAGGCGGAAGGCUUUAAUUUAUCACUACGAAAUCUUGAGAUCGGACGUGCGACUCGCCCCCGGAAGAUUUUUUCCUCGAGCAA, the nonsense suppression was 1.12. With CUCUCGGUAUCCACGGUGGUUUAAGGCGCAACACUUUAAUUUAUCACUACGAAAUCUUCAGAUCGGGCGUUCGACUCGCCCCCGGGAGAUUUUUUCCUCGAGCAA the figure was not above 0.026. On to CUCUCGGUAGCCAAGUUGGUUUAAGGCGCAUGACUUUAAUUUAUCACUACGAAAUCUUGAGAUAGUCCGUUCGACUCGACCCCGGGAGAUUUUUUCCUCGAGCAA, for which the nonsense suppression is not above 0.026.

For CUCUCGGUAGCCAAGUUGGUUUAAGGAGCAAGACUUUAAUUUAUCACUACGAAAUCUUGAGAUCAGGCGUUCGACUCGCCCCCGGGAGAUUUUUUCCUCGAGCAA, the nonsense suppression is not above 0.026. With CUUUCGGUAGCCAAGUUGGAUUAAGGCCCAAGACUUUAAUUUAUCACUACGAAAUGUUGAGAUCGGGCGUUCGACUCGCCCCCGGGAGAUUUUUUCCUCGAGCAA the figure was not above 0.026; with CUCUCGGUAGCCAAGUUGGUUUAAGGCGCCAGACUUUAAUUUAUCACUACGAAAUCUUGGGAUCAGGCGUUCGACUCGCCCCCGGGACAUUUUUUCCUCGAGCAA, not above 0.026. As for CUCUCGGUAGCCAAGUUGGUUUAAGGCGCAAGACUUUAAUUUAUCACUACGAAAUCUUGAGAUGGGGCGUUCGACUCGCCCACGGGAGAUUUUUUCCUCGAGCAA, the figure is not above 0.026. As for CUCUCGGUAGACAAGUUGGUUUAAGGCGCAAGACUUUAAUUUAUCACUACGAAAUGUUGAGAUCGUGCGUUCGACUCGCCUCCGGGAGAUUUUUUCCUCGAGCAA, the figure is not above 0.026; as for CUCUCGGUAGCCAAGUUGGUUUAAGGCACAAGACUUUAAUUUAUCACUACGAAAUGUUGAGAUCGGGCGUUCGACUCGCCCCCGGGAGAUUUUUUCCUCGAGCAA, not above 0.026. As for CUCUCGGUAGCCAAGUUGGUUUAAGGCACAAGACUUUAAUUUAUCACUACGAAAUCUUGAGAUCGGGCGUUCGACUCGCCCCCGCGAGAUUUUUUCCUCGAGCAA, the nonsense suppression was not above 0.026. As for CUCUCGGUAGCCAAGUUGGUUAAAGGCGCAAGACCUUAAUUUAUCACUACGAAAUCCUGAGAUCGGGCGUUCGACUCGCCCCCGGGAGAUUUUUUCCUCGAGCAA, the figure is not above 0.026; as for CUUUCGGUAGCCAAGUUGUUUUAAGGCGCAAGACUUUAAUUUAUCACUACGAAAUCUUGAGAUCGGGCGUACGACUCGCCCCCGGGAGAUUUUUUCCUCGAGCAA, not above 0.026; as for CUCUCGUUGGCCAAGUUGGUUUAAGGCGCAAGACUUUAAUUUAUCACUACGAAAACUUGAGAUCGGGCGUUCGACUCGCCCCCGGGAGAUUUUUUCCUCGAGCAA, not above 0.026. For the variant CUCUCGGUAGCGAAGUUGGUUUAAGGCGCAAGACUUUAAUUUAUCACUACGAAAUCUUGAGAUCGAGCGUUCGACUCGCACCCGGGAGAUUUUUUCCUCGAGCAA, the nonsense suppression was not above 0.026.

Consider CUCUCGGUAGCCAACUGGCUUUAAUGCGCAAGACUUUAAUUUAUCACUACGAAAUCUUGAGAUCGGGCGUUCGACUCGCCCCCGGGAGAUUUUUUCCUCGAGCAA, for which the nonsense suppression is not above 0.026.

Take CUCUCGGUACCCAAGUUGGUUUAAGGCGCAAGACUUUAAUUUAUCACUACGAAAUCUUGAGAUCGGGCGUUCGACUCGACCCCGGGAGAUUUUUUCCUCGAGCAA: the nonsense suppression is not above 0.026. As for CUCUCGGAAGCCAAGUUGGUUUAACGCGCAAGACUUUAAUUUAUCACUACGAAAUCUUGAGAUCGGGCGAUCGACUCGCCCCCGGGAGAUUUUUUCCUCGAGCAA, the figure is not above 0.026. Turning to UUCUCGGUAGCCAAGUUGGUUUACGGCGCAAGACUUUAAUUUAUCACUACGAAAUCUUGAGAUCGGGCGUUCGACUCGCCCCCGGGAGCUUUUUUCCUCGAGCAA, the nonsense suppression is not above 0.026. As for CUCUCGGUAGCCAAGUAGCUUUAAGGCGCAAGACUUUAAUUUAUCACUACGAAAUCUAGAGAUCGGGCGUUCGACUCGCCCCCGGGAGAUUUUUUCCUCGAGCAA, the figure is not above 0.026; as for CUCUCGGUAGCCACGUUGGUUUAAGGCGCAAGACUUUAAUUUAUCACUACGAAAUCUUGAGAUCGGGCGAUCCACUCGCCCCCGGGAGAUUUUUUCCUCGAGCAA, not above 0.026. With CUCACGGUAGCCAAUUUGGUUUAAGGCGCAAGACUUUAAUUUAUCACUACGAAAUCUUGAGAUCGGGCGUUCGACUCGCCCCCGGGACAUUUUUUCCUCGAGCAA the figure was not above 0.026. As to CUCUCGGUAGCCAAGUUGGUUUAAGGCGCAAGACUUUAAUUUAUCACUACGAAACCUUGAGAUCGGGCGUUCGACUCGCCCCCGGAAAAUUUUUUCCUCGAGCAA, the nonsense suppression was not above 0.026.
